Source: the supplement of paper PMC11383711
The list shows a part of the results. Binding of human antibodies (heavy:light variable regions, tested as scFv in one mRNA-display pool) to influenza hemagglutinin, with or without the stem antibody CR9114 bound first. Score = (mean enrichment − median) / interquartile range of that screen; higher = more enriched, 0 = typical non-binder. Active = above the paper's cut-off per screen: stems 28; unblocked H1 Solomon Islands 5, H1 Michigan 3, H3 5, H5 19, H7 2.85, both B 5; blocked 9, 7, H5 10, H7 10, B Phuket 10, B Lee 11.5. Scores are scaled within each screen and are no affinities; replicates correlate at about 0.6 to 0.9, and antibodies rare in the pool are noisier.

B1: K77-2F02 (protein)
chain 1: EVQLVESGGVVVQPGGSVRLSCAASGFTFDDYAMHWVRQAPGKSLEWVSLISWDGGNTYYADSVRARFTISRDNDKNSLYLQINSSRPEDTALYYCARDQGSSWYSGKLGIDYWGQGALVTVSS
chain 2: DIVMTQTPLSLSVTPGQPASISCKSSHSLLHSDGKTYLYWYLQKPGQSPHLLIYEVSSRFSGVPDRFSGSGSGTDFTLKISRVEAEDVGVYYCMQGMHVPRLTFGGGTKVEIK
B2: antibody 3C04 (protein)
chain 1: VQLVQSGAEVKKPGASVKVSCKASGYTFTYHYVYWVRQAPGQGLEWMGWMSPKTGDTNISQRFQGRVTMTRDTSITTAYMEMSRLRFDDTAVYYCTRGQYSDHFDSWGQGTLVTVSS
chain 2: SYELTQPPSVSVAPGQTAMITCGGNHIGTKSVHWYQQRPGQAPVLVVYDNRVRSSGIPERFSGSNSGNTATLTISRVEAGDEADYYCQVWDSSSDHNVVFGGGTKLTVL
B3: 3C11 (protein)
chain 1: QVQLVQSGAEVKETGESLNISCKVSGNNFPSYYISWVRQMPGNGLEWMGRIDPSDSDTNYRPSFQGHVTISADKSTSTAYLQWRSLKASDTAMYYCARRATYYYGSGSYFDAFDIWGQGTMVTVSS
chain 2: EIVMTQSPLTLPVTPGAPASISCRSSQSLLHSDGYNYLDWYLQKPGQSPQLLIYLGSHRASGVPDRFSGSGSGTDFTLKISRVEAEDVGVYYCMQALQTPDFGQGTRLEIK
B4: W85-1F07 (protein)
chain 1: QVQLAQSGPEVKKPGTSVKVSCKASGFTFSRAAVQWVRQARGQPLEWMGWIVGGSGKANYAQKFQERVTITRDMSTSTAYMELSSLRSEDTAVYYCAADASGYDLHYYYYYGMDVWGQGTTVTVSS
chain 2: QSALTQPASVSGSPGQSITISCTGTSSDVGGYDFVSWYQQCPDNAPKLMIYEVSHRPSGVSNRFSGSKSGNTASLTISGLRSEDEADYYCSSYTITNTWVFGGGTKLTVL
B5: AG2-B01 (protein)
chain 1: VQLVESGGGLIQPGGSLRLSCAVSGFGVSSKYMSWVRQTPGKRLEWVSIIYAGGNTYYGGSLRGRFTISRDTVKNIVFLDMKSLRGEDTAVYYCARGLSNVYPNTFDLWGQGTLVTVSS
chain 2: DIVMTQSPFSLPVTPGEPAFISCRSSQSLLHTDGYNYVDWYLQRPGQSPQLLIYLASYRASGVPDRFSGSGSGTDFTLRISRVEADDVGIYYCMQPLQAPTFGQGTRLEIK
B6: R95-1B02 (protein)
chain 1: QVHLQESGPGLVKPSETLSLTCSVSAGSLTSHFWSWIRQPPGKGLEWIGYIHHSGTTGYNPSLKSRVTISVDTSKNQFSLHLTSVTAADTAVYYCARDGSSTSWYFDFWGRGTLVTVSS
chain 2: QSALTQPRSVSGSPGQSVTISCTGTASDVGAYDFVSWYRQHPGKAPKLIIYDVSQRPSGVPDRFSGSKSGNTASLTISGLQADDEGDYHCCSYTGTDTSGVFGGGTKLTVL
B7: 037-10-5E04 (protein)
chain 1: QVQLQESGPGLVKPSETLSLTCTVSGTSITTHYWSWIRQTPGKGLEWIGHISSDGTTNFNPSLKSRVTISMDTSKNQFSLNLSSVTAADTAVYYCARDFRERLGHRWEQAFDFWGQGSLVTVSS
chain 2: DIQMTQSPSSLSASVGDRVTITCRASQSISSSLNWYRQEPGKAPKFLIYIASNLQSGVPSRFSGSGSGTDFTLTISSLQPEDFATYYCQQSYSTPWTFGQGTKVEIK
B8: 01.g.01 (protein)
chain 1: EVQLVESGGGLVKPGGSLRLSCAASGFTFSSYSMNWVRQAPGKGLEWVSSISSNSYFIYYADSVKGRFTISRDNAKNSLSLQMNSLRAEDTAIYYCARDAGSTGYDYYFDYWGQGTLVTVSS
chain 2: EIVMTQSPATLSVSPGERATLSCRASQSVSSNLAWYQQKPGQAPRLLIYGASTRATGIPARFSGSGSGTEFTLTISSLQSEDFAVYYCQHYNNWPPWTFGQGTKVEIK
B9: AG8-2D02 (protein)
chain 1: VQLVQSGAEVKKPGASVRLSCKASGFRFTNYYFNWVRQAPGQGLEWMGIINPSGGATTYAQKFQGRVTMTRDTSTSTVYMELGSLRSEDTAVYYCARMATLTASYFYSYGMDVWGQGTTVTVSS
chain 2: EIVLTQSPGTLSLSPGERVTLSCRASQSVSSSYVAWYQQKPGQAPRLLIYAASTRATGIPDRFSGSGSGTDFTLTISRLEPEDFAVYYCQQYGTSPALTFGGGTKVEIK
B10: W85-3D10 (protein)
chain 1: EVQLVESGGGLVQPGGSLRLSCAASGLSVSGNYISWVRQAPGKGLEWVSVMYAGGRKYYADSVKGRFSISRDQSKNTVYLQMDSLRVEDTAVYYCAGTYLEWLDYWGQGTLVAVSS
chain 2: DIQMTQSPSSLSASVGDRVTITCRASQSISTYLNWYQQRPGRAPKLLIYAASTLQSGVPSRFSGSGSGTDFTLTITGLQPADFATYYCQQTYSSLITFGPGTRVDLK
B11: R95-1G10 (protein)
chain 1: EVQLVESGGGSVQPGGSLRLSCAASGFSFSNYWMHWVRQAPGKGLVWVSRVISDGTITSYVDSVEGRFTISRDNAENTLYLQMDSLRAEDTAVYYCARGYSTSSGIWYFDLWGRGTLVTVSS
chain 2: SYELTQPPSVSVAPGQTARVTCGGDNIGSKSVHWYQQKSGQAPVLVVYDDSDRPSGIPERFSGSNSGNTATLTISRVEAGDEADYYCQVWDSSTDHWVFGGGTKLTVL
B12: AG13-3G01 (protein)
chain 1: VQLVQSGPEVKKPGASVKVSCKASGYTFTSNHIHWLRQAPGQGIEWMGWINPDTGDTEYSRKFQGRVTMTRDTSMTSAYMDLNWLGSADTGVYYCARDRENRLDIVTVPPDNWFDSWGQGTLVTVSS
chain 2: EIVMTQSPATLSASPGGRVTLSCRASQSVSNNLVWYQQKPGQAPRLLIYDASTRATGVPGRFSGSGSGTEFTLTISSLQSEDFAIYYCQQYQNWPTFGQGTKVEIK
B13: 220-14-IgG-1A03 (protein)
chain 1: EVQLVESGGGLVQPGGSLRLSCAASGFTFSNYWMNWVRQGPGKGLVWVARINSDGSRTIYADSVKGRFTISRDNPKNTLYLEMNSLRAEDTAVYFCAREPYFPLYFDYWGQGALVTVSS
chain 2: DIVMTQSPLSLPVTPGEPASISCRSSQSLLHRNEDNYLNWYLQKPGQSPQILIYFGSNRASGVPDRFSGSGSGTDFTLKISRVEAEDVGVYYCMQALQTPFTFGQGTKVEIK
B14: 220-14-IgG-1E01 (protein)
chain 1: EVQLVESGGGLVQPGGSLRLSCAASGFTSSSYEMNWVRQAPGKGLEWISFISKSESIISYADSVKGRFTISRDSAKNSLYLQLTSLRAEDTAVYYCARLGLLGFGELGPPHWYYAMDVWGQGTTVTVSS
chain 2: EIVLTQSPGTLSLSPGERATLSCRASQSVSSTYLVWYRQRPGQAPRLLIYGASKRATGIPDRISGSGSGTDFTLTISRLEPEDFAVYYCQVYGSSPLFAFGPGTK
B15: antibody 2G04 (protein)
chain 1: VQLVESGGGLVQPGRSLRLSCAASGFTFDDYAMHWVRQAPGKGLEWVSGINWNSGVVGYADSVKGRFTISRDNAKNSLYLQMTSLRAEDTALYYCAKDMHLSAMDILRDAFNMWGQGTMVTVSS
chain 2: DIQMTQSPSTLSASLRDRVTITCRASQSISRWLAWYQQKPGKAPKLLIYAASTLESGVPPRFSGSGSGTEFTLTISSLQPDDFATYYCQQYNSDVTFGQGTRLEIK
B16: C1-2-C06 (protein)
chain 1: VQLLESGGGLVQPGGSLRLSCVASGFSFSKYGMSWVRQVPGKGLEGVASVSVGGGYSHYSDYVAGRFVISKEVSSNTLHLQMSRLRAEDTAVYYCVKNRGWQLGPDAFDSWGQGTMVTVSS
chain 2: AIQLTQSPSSLSASLGDRVVITCRASQGVNRDLAWYQQKPGEVPSLLMSSVSLMKSGVPSRFSGSGSGTDFTLTINGLQSEDFAIYYCQQFNSYPITFGQGTRLEIK
B17: C3-2-3F02 (protein)
chain 1: VQLVESGGGVVRPGGSLRLSCEASGFTFRVYDMHWVRQAPGKGLEWVAFIRRDGSNEYVIDSVKGRFTISRDNSKNTVYLRMNSLRPEDTALYYCAKLPQRLDEGDYYFDMEVWGQGTTVTVSS
chain 2: DIQMTQSPASLSAAVGDRVTITCRASQGVGNDLGWYQQKPGKAPKRLIYAASSLEDGVPSRFSGSGSGTDFTLTISSLQPEDFATYYCLQHSTYPLTFGGGTKVEIK
B18: K77-1C04 (protein)
chain 1: QVQLQESGPGLVKPSETLSLTCTVSGGSISSSRYYWGWIRQPPGKGLECIGTIYYTGNTYYNPSLKSRVTISVDTSKNQFSLKLRSVTAADTAVYYCAREGQWLDPNYFDYWGQGALVTVSS
chain 2: DIVMTQSPDSLAVSLGERATINCKSSQSVLFRSNNKNCVAWYQQKPGQPPKLLIYWASTRESGVPDRFSGSGSGTDFTLTINSLQAEDVAVYYCQQYYSTPQTFGQGTKVEIK
B19: K77-1C11 (protein)
chain 1: QVQLQESGPGLVKPSETLSLSCTVSGGSISTYDWSWIRQSPGKGLEWIGCIYYIGRTEYNPSLKSRVTISVDTSKNQFSLKLSSVTAADTAVYYCARDGRGYSGYDYYNYYGMDAWGQGTTVTVSS
chain 2: NFMLTQPHSVSESPGKTVVISCTRSSGSIDSNYVQWYQQRPGSSPTIVIYVDNQRPSGVPDRFSGSIDSASNSASLTISGLKTEDEADYYCQSNDNNNRVFGGGTKLTVL

target: H1 HA stem construct (mini-HA #4900); test: mRNA display binding score; higher = more enriched on the antigen; conditions: antigen blocked with: nothing
Protocol: (§1)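 A pool of natively paired antibodies, displayed as scFv on mRNA, was selected once on antigen-coated beads and sequenced before and after; two replicates.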

mRNA display binding score, inactive:
B1 -0.187
B2 -1.13
B3 -0.401
B4 -0.354
B5 1.14
B6 0.125
B7 0.0119
B8 -0.678
B9 0.0462
B10 -0.374
B11 -0.602
B12 -0.674
B13 -0.171
B14 0.69
B15 0.0351
B16 -0.191
B17 -0.902
B18 0.552
B19 0.166

target: H3 HA stem construct (H3ssF); test: as above; conditions: antigen blocked with: nothing
Protocol: as §1

mRNA display binding score, inactive:
B1 -0.573
B2 -0.026
B3 -0.0531
B4 -0.0147
B5 -0.64
B6 0.0683
B7 -0.284
B8 -0.49
B9 10.7
B10 0.466
B11 -0.381
B12 -0.798
B13 0.204
B14 -0.0273
B15 -0.232
B16 1.82
B17 -0.461
B18 4.1e-06
B19 -0.0597
